# Measurements: PubChem BioAssay AID686978 (National Center for Advancing Translational Sciences (NCATS), 2013)
# Screen size: about 420,000 compounds; about 64,000 (15%) were called active. Inconclusive means that the source gave no clear call. Such entries were picked first, then a sample of the others. The call rests on the fitted dose curve; in most records, active means well fitted inhibition curve with a large enough effect; inconclusive means small, poorly fitted or top-dose-only effect; inactive means flat fitted curve, though single readings scatter. Potencies of inconclusive entries are left out as doubtful fits.
# Test: qHTS for Inhibitors of human tyrosyl-DNA phosphodiesterase 1 (TDP1): qHTS in cells in absence of CPT; further: nearly all actives have a fitted effect of over 55% in size
# Conditions: DT40 Tdp1-/- hTDP1 cells, no CPT, ATP luminescence, 48 h; activity change, negative = growth inhibition: at 46.2 µM (top of the series) unless noted
# How it was run: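 Seeded 400 DT40-hTDP1 cells/well (vehicle DMSO, no 20 nM CPT); pinned compounds; ≥48 hr at 37 °C; CellTiter-Glo luminescence as viability measure.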
# On the % scale 0 is the no-effect control and ±100 the full control effect; potency means the concentration at half of the fitted maximal effect; tags describe the fitted curve by direction and shape.
Compound,Potency,"activity change, negative = growth inhibition"
CN(Cc1ccccc1)c1nc2c(c(=O)[nH]c(=O)n2C)n1Cc1ccccc1,"inconclusive [inhibitor, single point]",
C[C@](N)(C(=O)O)c1ccc(-c2nn[nH]n2)cc1,,inactive: 1.21%
O=C(CN1C(=O)S/C(=C/c2cccn2-c2ccc(O)cc2)C1=O)N1CCCC1,"inconclusive [inhibitor, single point]",
Cc1cc(C)c(S(=O)(=O)Nc2cc(Cl)c3oc4c(c3c2)C(=O)CCC4)cc1C,,inactive: -10.5%
CC(=O)c1ccc(NS(=O)(=O)c2cccc(C(=O)Nc3ccccc3C(=O)O)c2)cc1,"inconclusive [inhibitor, single point]",
O=C(NCCO)/C(=C\c1ccco1)NC(=O)c1ccco1,,inactive: -3.97%
CC1CCCC(C)N1/N=C/c1cc(Br)cc(Br)c1O (stereo not given),,inactive: 6.25%
CCCCC1CC2=C(C(=O)OC(C)(C)O2)C(c2ccc3ccccc3c2)O1 (stereo not given),"inconclusive [inhibitor, single point]",
Cc1ccc(OCC(=O)NNC(=O)C2CCN(c3ncccn3)CC2)cc1,,inactive: 7.69%
Cc1cc(C(=O)Cn2cnc3ccccc3c2=O)c(C)n1C1CC1,,inactive: 1.09%
COc1ccc(OCC(=O)N/N=C2\CCCc3ccccc32)cc1,"inconclusive [inhibitor, single point]",
C=CCN(C(=O)CCC(=O)Nc1cc(C)on1)C(C(=O)NC1CCCC1)c1ccc(OC)c(OC)c1 (stereo not given),,inconclusive: -33.4% [inhibitor]
Nc1nnc(SCC(=O)Nc2cc(C(F)(F)F)ccc2N2CCOCC2)s1,"inconclusive [inhibitor, partial curve]",
Cc1cccc(CNc2ccc(C(CC(N)=O)NC(=O)c3ccccc3)cc2[N+](=O)[O-])c1 (stereo not given),"inconclusive [inhibitor, single point]",
CCCn1c(SCC(N)=O)nnc1-c1ccco1,"inconclusive [inhibitor, single point]",
CCCn1c(SCC(=O)c2ccc3c(c2)OCCO3)nnc1C(C)C,active: 20.6 µM,
COc1ccc(C)cc1NC(=O)CCN1CCN(c2ccccc2F)CC1,"inconclusive [inhibitor, single point]",
CCOc1cc(/C=C(\C#N)c2nc3ccccc3[nH]2)ccc1OC(C)C(=O)O (stereo not given),,inactive: -7.25%
CCc1cc(C(=O)OC)c(NC(=O)CSc2nccn2C)s1,,inactive: -22.6%
COc1ccc(-c2ccc(C(=O)Nc3cccc(F)c3)c3occc23)c(C)c1,"inconclusive [inhibitor, partial curve, poor fit]",
Cc1ccc(CNC(=O)C(=O)NCC(c2ccco2)S(=O)(=O)c2ccc(C)cc2)cc1 (stereo not given),,inactive: -8.48%
Cn1ncc2c(Nc3ccc(Cl)c(Cl)c3)ncnc21,"inconclusive [inhibitor, single point]",
Cc1ccc(-n2nnnc2SCc2ccccn2)cc1C,,inconclusive: -30.3% [inhibitor]

Compound,Potency,"activity change, negative = growth inhibition"
Cc1ccc(Cn2c(=O)n(Cc3ccccc3)c(=O)c3c(C)c(C)sc32)cc1,,inactive: 0.958%
CCOc1ccc(C(=O)Nc2ccc(-c3nnc4n3CCCCC4)cc2)cc1OCC,"inconclusive [inhibitor, partial curve]",
CC(C)C[C@H]1CN([C@@H](CC(C)C)CN2CCC[C@H]2CN2C(=O)C(=O)NC[C@@H]2Cc2ccc(O)cc2)C(=O)C(=O)N1CC1CCCCCC1,"inconclusive [inhibitor, single point]",
Cc1oc(-c2ccc(Cl)cc2)nc1CS(=O)CC(=O)NCCCN1CCCC(C)C1 (stereo not given),"inconclusive [inhibitor, single point]",
C=CCn1c(-c2ccc(Cl)cc2)ccc(C#N)c1=O,,inactive: -34.7%
O=C(c1ccccc1)N1CCCC(C(=O)N2CCN(c3ccccc3)CC2)C1 (stereo not given),"inconclusive [inhibitor, single point]",
COC(=O)[C@]12CCCCC=C1N(Cc1cccc3ccccc13)C(=O)[C@H](CC(=O)NCC1CCCCC1)C2,active: 18.4 µM,
CCn1c2ccccc2c2cc(NC(=O)CCCN3C(=O)CCC3=O)ccc21,"inconclusive [inhibitor, single point]",
COc1ccc(NC(=O)CSc2nc3ccccc3c(=O)n2C)cc1,active: 10.3 µM,
CC(C)(C)N1C(=O)[C@H]2[C@@H](c3ccc(Br)cc3)N3C(=O)N(c4ccccc4)C(=O)[C@@]3(C)[C@H]2C1=O,,inactive: -15.9%
COc1cc(/C=C(\NC(=O)c2ccccc2)C(=O)NC(C(=O)O)c2ccccc2)cc(OC)c1OC (stereo not given),,inactive: 1.16%
CCCCNC(=O)CN1C(=O)c2c(c3ccccc3n2C)C1c1ccc(OC)cc1 (stereo not given),"inconclusive [inhibitor, single point]",
COCC1CCCCN1Cc1cn[nH]c1-c1ccc(OC)cc1OC (stereo not given),,inconclusive: -34% [inhibitor]
Cn1c(=O)[nH]c(=O)c2c1nc(N1CCc3ccccc3C1)n2CCSc1nc2ccccc2s1,"inconclusive [inhibitor, single point]",
COc1cc(/C=C(\C#N)c2nc3ccccc3[nH]2)cc(Br)c1OCc1ccc(F)cc1,"inconclusive [inhibitor, single point]",
COc1ccc(Nc2nc(Nc3ccc(OC)cc3OC)nc(N3CCOCC3)n2)c(OC)c1,active: 13 µM,
Cc1cc(OCc2cc(C(=O)N(C)Cc3nonc3C)no2)cc(C)c1Cl,,inactive: -3.15%
C[C@H](CO)N1C[C@H](C)[C@@H](CN(C)Cc2cccnc2)Oc2cc(-c3cccnc3)ccc2S1(=O)=O,,inactive: -27.5%
Cc1cc(C(=O)CN2C(=O)C(=O)N(Cc3ccccc3)C2=O)c(C)n1Cc1ccccc1,"inconclusive [inhibitor, single point]",
Cc1ccc(OCCNC(=O)C2CC(=O)N(c3ccc(C)cc3)C2)cc1 (stereo not given),"inconclusive [inhibitor, partial curve]",
Cc1cccc(C(=O)NNC(=O)c2cccc(C)c2)c1,,inactive: 1.26%
CC1CCc2c(sc(NC(=O)c3cccs3)c2C(=O)O)C1 (stereo not given),"inconclusive [inhibitor, single point]",
